{"sequences": {"note": "By UniProt entry, the sequences of proteins in these tests, tags left out.", "UniProt Q99418": "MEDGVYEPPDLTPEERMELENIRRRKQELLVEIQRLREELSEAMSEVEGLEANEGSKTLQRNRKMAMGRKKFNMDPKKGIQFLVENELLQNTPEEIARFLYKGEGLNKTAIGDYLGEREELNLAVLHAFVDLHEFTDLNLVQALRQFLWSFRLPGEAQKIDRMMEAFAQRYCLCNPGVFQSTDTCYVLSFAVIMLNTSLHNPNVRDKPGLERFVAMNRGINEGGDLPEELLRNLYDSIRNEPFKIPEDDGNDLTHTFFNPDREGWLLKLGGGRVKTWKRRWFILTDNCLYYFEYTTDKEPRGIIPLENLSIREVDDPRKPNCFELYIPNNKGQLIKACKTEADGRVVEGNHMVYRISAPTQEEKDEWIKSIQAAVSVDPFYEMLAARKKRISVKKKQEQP"}, "source": "paper PMC3599651", "key": {"[1]": {"target": "VN-flag-Del80-Dock180 (truncation of the first 80 amino acids, lacks the SH3 domain), in HEK 293 (UniProt Q14185)", "experiment": "co-IP; HEK 293 cells co-transfected with Dock180 and GRASP constructs; lysis in 50 mM Tris pH 7.5, 150 mM NaCl, 1% Triton X-100; Dock180 immunoprecipitated with M2 anti-flag resin overnight at 4 °C; Western blot"}, "[2]": {"target": "flag-tagged Dock180 (wild type) (UniProt Q14185)", "experiment": "co-IP; HEK 293 cells co-transfected with Dock180 and GRASP constructs; lysis in 50 mM Tris pH 7.5, 150 mM NaCl, 1% Triton X-100; Dock180 immunoprecipitated with M2 anti-flag resin overnight at 4 °C; Western blot"}, "[3]": {"target": "VN-flag-Dock180 (full-length), in HEK 293 (UniProt Q14185)", "experiment": "co-IP; HEK 293 cells co-transfected with Dock180 and GRASP constructs; lysis in 50 mM Tris pH 7.5, 150 mM NaCl, 1% Triton X-100; Dock180 immunoprecipitated with M2 anti-flag resin overnight at 4 °C; Western blot"}, "[4]": {"target": "T1, Flag-Dock180 N-terminal 80 amino acids (SH3 domain) (UniProt Q14185)", "T1 sequence": "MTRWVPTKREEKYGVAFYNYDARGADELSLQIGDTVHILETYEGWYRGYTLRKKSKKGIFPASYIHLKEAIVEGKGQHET", "experiment": "pull-down; Flag-Dock180 (N-terminal 80 amino acids) held on M2-Flag resin; eluted GST-GRASP added in TBS, rotated 2 hours at 4 °C; M2-Flag gel alone as control; GelCode staining and Western blot; both purified"}, "VN-cytohesin 2": {"target": "VN-cytohesin 2 (UniProt Q99418)", "experiment": "split reporter; BiFC with split Venus (VN and VC fusions) co-transfected into MDCK cells plated on fibronectin coated coverslips; fixed after 18 hours; YFP fluorescence"}, "[5]": {"target": "VN-Dock180 (full length), in MDCK cells (UniProt Q14185)", "experiment": "split reporter; BiFC with split Venus (VN and VC fusions) co-transfected into MDCK cells plated on fibronectin coated coverslips; fixed after 18 hours; YFP fluorescence"}, "[6]": {"target": "VN-Del80-Dock180, in MDCK cells (UniProt Q14185)", "experiment": "split reporter; BiFC with split Venus (VN and VC fusions) co-transfected into MDCK cells plated on fibronectin coated coverslips; fixed after 18 hours; YFP fluorescence"}}, "note": "Results are given in words; binding and its absence hold for the method and conditions named. For some assays here: In cells and extracts the contact can be indirect. Some binding calls cover weakened binding; strength is not graded here. For some assays here: Tags and fused reporters may be left off the sequences shown."}
{"binder": "HA-tagged wild type GRASP (protein, UniProt Q7Z6J2 1-395) MTLRRLRKLQQKEEAAATPDPAARTPDSEVAPAAPVPTPGPPAAAATPGPPADELYAALEDYHPAELYRALAVSGGTLPRRKGSGFRWKNLSQSPEQQRKVLTLEKEDNQTFGFEIQTYGLHHREEQRVEMVTFVCRVHESSPAQLAGLTPGDTIASVNGLNVEGIRHREIVDIIKASGNVLRLETLYGTSIRKAELEARLQYLKQTLYEKWGEYRSLMVQEQRLVHGLVVKDPSIYDTLESVRSCLYGAGLLPGSLPFGPLLAVPGRPRGGARRARGDADDAVYHTCFFGDSEPPALPPPPPPARAFGPGPAETPAVGPGPGPRAALSRSASVRCAGPGGGGGGGAPGALWTEAREQALCGPGLRKTKYRSFRRRLLKFIPGLNRSLEEEESQL", "values": [{"measurement": "binding", "setting": "[1]", "result": "no binding"}, {"measurement": "binding", "setting": "[2]", "result": "binds"}, {"measurement": "binding", "setting": "[3]", "result": "binds"}]}
{"binder": "GST-GRASP (full length GRASP fused to GST) (protein, UniProt Q7Z6J2 1-395) MTLRRLRKLQQKEEAAATPDPAARTPDSEVAPAAPVPTPGPPAAAATPGPPADELYAALEDYHPAELYRALAVSGGTLPRRKGSGFRWKNLSQSPEQQRKVLTLEKEDNQTFGFEIQTYGLHHREEQRVEMVTFVCRVHESSPAQLAGLTPGDTIASVNGLNVEGIRHREIVDIIKASGNVLRLETLYGTSIRKAELEARLQYLKQTLYEKWGEYRSLMVQEQRLVHGLVVKDPSIYDTLESVRSCLYGAGLLPGSLPFGPLLAVPGRPRGGARRARGDADDAVYHTCFFGDSEPPALPPPPPPARAFGPGPAETPAVGPGPGPRAALSRSASVRCAGPGGGGGGGAPGALWTEAREQALCGPGLRKTKYRSFRRRLLKFIPGLNRSLEEEESQL", "values": [{"measurement": "binding", "setting": "[4]", "result": "binds"}]}
{"binder": "VC-GRASP (protein, UniProt Q7Z6J2 1-395) MTLRRLRKLQQKEEAAATPDPAARTPDSEVAPAAPVPTPGPPAAAATPGPPADELYAALEDYHPAELYRALAVSGGTLPRRKGSGFRWKNLSQSPEQQRKVLTLEKEDNQTFGFEIQTYGLHHREEQRVEMVTFVCRVHESSPAQLAGLTPGDTIASVNGLNVEGIRHREIVDIIKASGNVLRLETLYGTSIRKAELEARLQYLKQTLYEKWGEYRSLMVQEQRLVHGLVVKDPSIYDTLESVRSCLYGAGLLPGSLPFGPLLAVPGRPRGGARRARGDADDAVYHTCFFGDSEPPALPPPPPPARAFGPGPAETPAVGPGPGPRAALSRSASVRCAGPGGGGGGGAPGALWTEAREQALCGPGLRKTKYRSFRRRLLKFIPGLNRSLEEEESQL", "values": [{"measurement": "binding", "setting": "VN-cytohesin 2", "result": "binds"}, {"measurement": "binding", "setting": "[5]", "result": "binds"}, {"measurement": "binding", "setting": "[6]", "result": "no binding"}]}
{"binder": "VC-GRASP lacking the first 82 amino acids of GRASP (domain or fragment, UniProt Q7Z6J2 83-395) GSGFRWKNLSQSPEQQRKVLTLEKEDNQTFGFEIQTYGLHHREEQRVEMVTFVCRVHESSPAQLAGLTPGDTIASVNGLNVEGIRHREIVDIIKASGNVLRLETLYGTSIRKAELEARLQYLKQTLYEKWGEYRSLMVQEQRLVHGLVVKDPSIYDTLESVRSCLYGAGLLPGSLPFGPLLAVPGRPRGGARRARGDADDAVYHTCFFGDSEPPALPPPPPPARAFGPGPAETPAVGPGPGPRAALSRSASVRCAGPGGGGGGGAPGALWTEAREQALCGPGLRKTKYRSFRRRLLKFIPGLNRSLEEEESQL", "values": [{"measurement": "binding", "setting": "[5]", "result": "no binding"}]}
